# Some of the results follow.
# Legend:
# Test in all cases: glycan array binding signal (z-score within array); higher = stronger binding
# Conditions in all cases: glycan notation: IUPAC condensed, linker removed
# [1] = target: GalNAc(b1-4)GlcNAc(b1-2)Man
# How it was run: (§1)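 The binding signal is a Z-score computed within each array. Data were drawn from 3228 arrays in the Consortium for Functional Glycomics database, restricted to those with a known protein sequence. Scores were averaged over arrays of the same protein sequence at different concentrations or buffers, and over linkers, and negative values can be taken as non-binding.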
# [2] = target: GalNAc(b1-4)GlcNAc(b1-2)Man(a1-3)[GalNAc(b1-4)GlcNAc(b1-2)Man(a1-6)]Man(b1-4)GlcNAc(b1-4)GlcNAc
# How it was run: as §1
# [3] = target: GalNAc(b1-4)GlcNAc(b1-3)GalNAc(b1-4)GlcNAc
# How it was run: as §1
# [4] = target: GalNAc(b1-4)GlcNAc6S
# How it was run: as §1
# [5] = target: GalNAc(b1-6)GalNAc
# How it was run: as §1
# [6] = target: GalNAc3S(b1-4)GlcNAc
# How it was run: as §1
# [7] = target: GalNAc3S(b1-4)GlcNAc3S
# How it was run: as §1
# [8] = target: GalNAc3S(b1-4)[Fuc(a1-3)]GlcNAc
# How it was run: as §1
# [9] = target: GalNAc4S6S(b1-4)GlcNAc
# How it was run: as §1
# [10] = target: GalNAc6S(b1-4)GlcNAc
# How it was run: as §1
# [11] = target: Glc(a1-4)Glc
# How it was run: as §1
# [12] = target: Glc(a1-4)Glc(a1-4)Glc(a1-4)Glc
# How it was run: as §1
# [13] = target: Glc(a1-6)Glc(a1-6)Glc
# How it was run: as §1
# [14] = target: Glc(a1-6)Glc(a1-6)Glc(a1-6)Glc
# How it was run: as §1
# [15] = target: Glc(b1-4)Glc
# How it was run: as §1
# [16] = target: Glc(b1-6)Glc
# How it was run: as §1
# [17] = target: GlcA(b1-3)Gal
# How it was run: as §1
# [18] = target: GlcA(b1-3)GlcNAc
# How it was run: as §1
# [19] = target: GlcA(b1-6)Gal
# How it was run: as §1
# [20] = target: GlcA3S(b1-3)Gal(b1-4)GlcNAc(b1-2)Man
# How it was run: as §1
# [21] = target: GlcA3S(b1-3)Gal(b1-4)GlcNAc(b1-3)Gal(b1-4)Glc
# How it was run: as §1
# [22] = target: GlcNAc(a1-3)Gal(b1-4)GlcNAc
# How it was run: as §1
# [23] = target: GlcNAc(a1-4)Gal(b1-3)GlcNAc
# How it was run: as §1
# [24] = target: GlcNAc(a1-4)Gal(b1-4)GalNAc
# How it was run: as §1
# [25] = target: GlcNAc(a1-4)Gal(b1-4)GlcNAc
# How it was run: as §1
# [26] = target: GlcNAc(a1-4)Gal(b1-4)GlcNAc(b1-3)Gal(b1-4)Glc
# How it was run: as §1
# [27] = target: GlcNAc(a1-4)Gal(b1-4)GlcNAc(b1-3)Gal(b1-4)GlcNAc
# How it was run: as §1
# [28] = target: GlcNAc(a1-4)Gal(b1-4)GlcNAc(b1-3)Gal(b1-4)GlcNAc(b1-3)Gal(b1-4)GlcNAc
# How it was run: as §1
# [29] = target: GlcNAc(a1-4)Gal(b1-4)GlcNAc(b1-3)Gal(b1-4)[Fuc(a1-3)]GlcNAc(b1-3)Gal(b1-4)[Fuc(a1-3)]GlcNAc
# How it was run: as §1
# [30] = target: GlcNAc(a1-6)Gal(b1-4)GlcNAc
# How it was run: as §1
# [31] = target: GlcNAc(b1-2)Gal(b1-3)GalNAc
# How it was run: as §1
# [32] = target: GlcNAc(b1-2)Man(a1-3)[GlcNAc(b1-2)Man(a1-6)]Man(b1-4)GlcNAc(b1-4)GlcNAc
# How it was run: as §1
# [33] = target: GlcNAc(b1-2)Man(a1-3)[GlcNAc(b1-2)Man(a1-6)]Man(b1-4)GlcNAc(b1-4)[Fuc(a1-6)]GlcNAc
# How it was run: as §1
# [34] = target: GlcNAc(b1-2)Man(a1-3)[GlcNAc(b1-4)][GlcNAc(b1-2)Man(a1-6)]Man(b1-4)GlcNAc(b1-4)GlcNAc
# How it was run: as §1
# [35] = target: GlcNAc(b1-2)Man(a1-3)[GlcNAc(b1-4)][GlcNAc(b1-2)Man(a1-6)]Man(b1-4)GlcNAc(b1-4)[Fuc(a1-6)]GlcNAc
# How it was run: as §1
# [36] = target: GlcNAc(b1-2)[GlcNAc(b1-4)]Man(a1-3)[GlcNAc(b1-2)Man(a1-6)]Man(b1-4)GlcNAc(b1-4)GlcNAc
# How it was run: as §1
# [37] = target: GlcNAc(b1-2)[GlcNAc(b1-4)]Man(a1-3)[GlcNAc(b1-4)][GlcNAc(b1-2)Man(a1-6)]Man(b1-4)GlcNAc(b1-4)GlcNAc
# How it was run: as §1
# [38] = target: GlcNAc(b1-2)[GlcNAc(b1-4)]Man(a1-3)[GlcNAc(b1-4)][GlcNAc(b1-2)[GlcNAc(b1-6)]Man(a1-6)]Man(b1-4)GlcNAc(b1-4)GlcNAc
# How it was run: as §1
# [39] = target: GlcNAc(b1-2)[GlcNAc(b1-4)]Man(a1-3)[GlcNAc(b1-4)][GlcNAc(b1-2)[GlcNAc(b1-6)]Man(a1-6)]Man(b1-4)GlcNAc(b1-4)[Fuc(a1-6)]GlcNAc
# How it was run: as §1
# [40] = target: GlcNAc(b1-2)[GlcNAc(b1-6)]Man(a1-6)[GlcNAc(b1-2)Man(a1-3)]Man(b1-4)GlcNAc(b1-4)GlcNAc
# How it was run: as §1
# [41] = target: GlcNAc(b1-2)[GlcNAc(b1-6)]Man(a1-6)[GlcNAc(b1-2)Man(a1-3)]Man(b1-4)GlcNAc(b1-4)[Fuc(a1-6)]GlcNAc
# How it was run: as §1
# [42] = target: GlcNAc(b1-2)[GlcNAc(b1-6)]Man(a1-6)[GlcNAc(b1-4)][GlcNAc(b1-2)Man(a1-3)]Man(b1-4)GlcNAc(b1-4)GlcNAc
# How it was run: as §1
# [43] = target: GlcNAc(b1-3)Fuc
# How it was run: as §1
# [44] = target: GlcNAc(b1-3)Gal
# How it was run: as §1
# [45] = target: GlcNAc(b1-3)Gal(b1-3)GalNAc
# How it was run: as §1
binder,measurement,setting,value
Arath Fbox LD (Arabidopsis thaliana) (protein) EFSVWLEKASGKRCLMLSAMNLSIIWGDNPQYWQWIPIPESRFEKVAKLRDVCWFEIRGRTNTRVLSPRTRYSAYIVFKGVDKCYGFQNVAIEAAVGVVGQEPSRRLICFSEAIRRGRRNVVKPKQREDGWMEIELGEFFNDGGIMDNDEIEMSALETKQLNRKCGLIIQGIEIRPAKILAAASFLEQKLISEEDLNSAVDHHHHHH,glycan array binding signal (z-score),[1],-0.446
same,glycan array binding signal (z-score),[2],-0.331
same,glycan array binding signal (z-score),[3],-0.612
same,glycan array binding signal (z-score),[4],-0.574
same,glycan array binding signal (z-score),[5],-0.007
same,glycan array binding signal (z-score),[6],-0.617
same,glycan array binding signal (z-score),[7],-0.519
same,glycan array binding signal (z-score),[8],1.17
same,glycan array binding signal (z-score),[9],-0.367
same,glycan array binding signal (z-score),[10],-0.313
same,glycan array binding signal (z-score),[11],-0.476
same,glycan array binding signal (z-score),[12],-0.529
same,glycan array binding signal (z-score),[13],-0.548
same,glycan array binding signal (z-score),[14],-0.436
same,glycan array binding signal (z-score),[15],-0.179
same,glycan array binding signal (z-score),[16],-0.208
same,glycan array binding signal (z-score),[17],-0.189
same,glycan array binding signal (z-score),[18],-0.21
same,glycan array binding signal (z-score),[19],1.15
same,glycan array binding signal (z-score),[20],0.101
same,glycan array binding signal (z-score),[21],-0.029
same,glycan array binding signal (z-score),[22],-0.356
same,glycan array binding signal (z-score),[23],-0.064
same,glycan array binding signal (z-score),[24],0.26
same,glycan array binding signal (z-score),[25],-0.391
same,glycan array binding signal (z-score),[26],-0.551
same,glycan array binding signal (z-score),[27],-0.37
same,glycan array binding signal (z-score),[28],-0.602
same,glycan array binding signal (z-score),[29],0.64
same,glycan array binding signal (z-score),[30],-0.354
same,glycan array binding signal (z-score),[31],-0.441
same,glycan array binding signal (z-score),[32],-0.535
same,glycan array binding signal (z-score),[33],-0.253
same,glycan array binding signal (z-score),[34],-0.61
same,glycan array binding signal (z-score),[35],-0.507
same,glycan array binding signal (z-score),[36],-0.593
same,glycan array binding signal (z-score),[37],-0.586
same,glycan array binding signal (z-score),[38],-0.532
same,glycan array binding signal (z-score),[39],-0.536
same,glycan array binding signal (z-score),[40],-0.517
same,glycan array binding signal (z-score),[41],-0.521
same,glycan array binding signal (z-score),[42],-0.433
same,glycan array binding signal (z-score),[43],-0.558
same,glycan array binding signal (z-score),[44],-0.425
same,glycan array binding signal (z-score),[45],-0.519
